Measured values: publication PMC10726135
The list shows a part of the results. At the low end of the ranking, values are background and their order means little. Measured with an extract: partners may take part in the binding.

Target: T1, HNF4alpha2 (COS-7 nuclear extract) (UniProt P41235)
T1 sequence: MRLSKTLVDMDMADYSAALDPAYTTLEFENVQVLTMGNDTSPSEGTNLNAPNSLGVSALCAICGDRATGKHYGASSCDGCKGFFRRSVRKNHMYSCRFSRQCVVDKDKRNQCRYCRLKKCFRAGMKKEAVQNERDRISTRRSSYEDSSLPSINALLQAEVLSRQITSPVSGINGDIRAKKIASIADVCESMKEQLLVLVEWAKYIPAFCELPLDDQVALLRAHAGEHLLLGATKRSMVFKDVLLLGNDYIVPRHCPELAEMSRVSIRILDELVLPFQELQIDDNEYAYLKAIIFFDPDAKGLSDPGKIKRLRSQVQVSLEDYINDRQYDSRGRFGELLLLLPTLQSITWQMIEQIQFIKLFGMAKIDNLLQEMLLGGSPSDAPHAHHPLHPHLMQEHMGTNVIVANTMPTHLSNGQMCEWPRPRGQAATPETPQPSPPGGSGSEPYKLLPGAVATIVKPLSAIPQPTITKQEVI
Test: protein-binding microarray
Settings: COS-7 nuclear extract on double-stranded Agilent 4x180k PBM; binding buffer, salt, pH and temperature not given; high values mean tight binding; double strand, one strand shown; sequences stand for … in …GCCTAGGGAGATTAGAGTATCGGTCGA

Row | Sequence | binding signal (log2 normalized intensity)
1 | AATCAAACTCTCTGTGGATGTATGTCCAGA | 1.19
2 | AAGTAGAATGAAAGCGGCTCAGGAAACAGC | -1.16
3 | ATACTATTCATCCTCCAAAACCCAGTTCAT | 3.39
4 | ATACCCAGAGTGATCTTTGAAACATAACAG | 1.56
5 | TCAAACAGCTTCGCCTCCTCCAAGCATACC | -1.05
6 | TGGAGGCTGGAGCTCCTGGGCCAAAGGGCA | 3.46
7 | TTTGTGTTTGTCCCTTTCTTCTTCTGCCAC | 1.37
8 | GAAAGTCTGACCCTTGACCAAGCAGCTGTT | 3.51
9 | CGAGTCAAGGGTCAATCCTCTCTTTGGAAT | 2.31
10 | AGAACAAGGTAGCCACAGAATGACTCTTGT | -0.979
11 | GTGGATGCTGGAATGAGGGAGGCAGCCACC | -1.16
12 | CCCATCTTCCAGAAATGCCAAGATCAGGGC | -0.946
13 | CTTCTGCCCCCGCAGACCCAGTCTTAGGGA | 4.14
14 | TTTTCCTCTAACCACTTTGAAATAGTGACC | 2.46
15 | GAAGCTTGAAGGAGTATATGGCTAAGCGAA | -0.94
16 | GGAACCCCACCCCCACGCCCCCCAGCGGAA | 7.16
17 | AGGTTGCAGTGAGCTGTGATTGCGCCACTG | -1.15
18 | GTCAAACTGATCAGAAGTGGTTACATCTAT | -0.449
19 | TAGGTCCCTGCTTCCAAGTCTCAGCACCTG | -1.1
20 | GCCGGCCCGCAGGTCAGTCGACCCTCTCTG | 1.53
21 | GCAGTCAGGACTCTGGGACCGCAGGGGGCT | -1.14
22 | TGGACTCCTCTTATCTTCAGGTATCCTTAA | 1.07
23 | ATGACCTGGACAGGTCCAAGGTTCTCCAGG | 1.61
24 | ACAAAGGGGGAGGGAGATAGAGAAAGAAAA | -1.14

Row | Sequence | binding signal (log2 normalized intensity)
25 | GAGACACCTGGCCAAGTACAGCCTGTGCTA | -1.09
26 | AACAGAGTCTCCGAGGAACCCAGACTGCAT | -1.11
27 | ACCTTTGGGCTAAAAAGGAAGCTGTGTGTG | 1.71
28 | AGATGAGTTTCTTCACTGACGAAACTCACA | -1.13
29 | TATCTCCAGCAAACGTTCTTCTCTAACCCT | -1
30 | TGGATGGGGGCGTTCCCCGAGCGAGCTCCG | -1.09
31 | GTCAATAGGGCAGGGGGGAGATGAAATCTG | -1.18
32 | TGCACTTTACGTAAGATAAGGTGAACATAC | 0.896
33 | AAGGTCAGGACCACACATTCCATTACTGCA | -1.18
34 | CCTAAAACATCAAATACCTCCAAGAGGTTT | -1.07
35 | AAAGGAGACTTTTAAGTGGGGTCAAAGGGT | 5.04
36 | AACTCACAGTCTGGCAGTGAAGGTTCAGTG | 1.62
37 | AAGTAAGCAGACACTGAAAGATGGTATGCT | -1.04
38 | GCTGCCAATGCAAATCCCAGAGTTCAAAGG | 4.35
39 | ACAGAGAGAAAGCAGTGACCATCCCAAAGC | -1.19
40 | TGCTTAACTATGTTTATCAGAGCAAAGTTC | 3.34
41 | GACCCTGAAAACAGGGCAAGGAACGGAATG | 0.0634
42 | GTGAGCAGGTGTGTGGCATCTTGGGGTCAA | 3.48
43 | TGAGGCCTGGCCGAGGTTGCCCAGCTATTA | -0.984
44 | TTTTAGATTAGGAGAGGGAGAGTGAGTGAG | 1.36
45 | ACCGTAGCCTGACCATCACCACTTCAAGCT | -1.15
46 | TTATCATAAGTCAGCCTGGCTGAAGACCTG | 0.568
47 | GGCAGTGTGGCACCCTCCCTTCCCGGGGAG | -1.06
48 | GAGAGGAGAAAGAGCAATCTCTCATCTGCC | -0.986

Row | Sequence | binding signal (log2 normalized intensity)
49 | ATCTCTTGACTCTTCCCATCTAACTGCCCC | 4.21
50 | GCTCTCAGAATAGCAAATCTGTTACGAGTG | 0.334
51 | AGTATAATAAAGTGGCAACCCTTGACCCCA | 5.82
52 | CGGCAGAGCACCTGGATAAGCCAGATAATT | -1.3
53 | AATGACATTTTGGACTACTTCATGTCCTGT | 0.916
54 | GCAAGACCAAACAAAATTAATGTGCCTGCC | -1.16
55 | CCTGGCTTGTTTGCAAAGCAACTCCTCTGT | 0.697
56 | ACAAGGCAGACTTGGATTTTCTCATCCCAG | -1.05
57 | TTGTAGGGGGAGGGTAAATATAGTTAAAGC | -0.764
58 | TCTAGGTCACCACCTTTTTTGGCCTTTACC | 1.84
59 | AGGTGGGGGCCGCCCATTGGGATCCATATC | -1.06
60 | TATCAAGGGTGAGGGATTTTCAGTATACTG | -0.322
61 | CTTCCCCACCCCCTCTCCTCCCTCGGCCGG | 5.88
62 | CTTAAAAAAAAAGAACAGCTTTGGTATTAC | -1.07
63 | ATGGCCACCCTTCAGCAAATAGTGGGAGGT | -0.331
64 | TTTTATTATATTGAATTCCTGGAAATCCCG | -0.687
65 | CTGGAACCAACATGGCAGACAGCAGTCTGA | -1.2
66 | ATGCTGCTCTCCCACTCCCCCTGCTGGACA | 3.93
67 | GAAGTAAAACAGGTAGAGAGCTGTCTGCTG | -1.04
68 | TATCTTGTCTCTTCTTGTACCTCTGGTGAT | 1.77
69 | AAGGTAGGCAGAGAGGCTGCTCAGTTTAAG | -0.88
70 | CAGGACTCTGGGACCGCAGGGGGCTCCCGG | -1.16
71 | AAGATGGGCATTAGGTGGACAGGGGTGTGT | 1.78
72 | TTGGCAAGTTAATGTGGCCTAATGTTTGTG | 1.61

Row | Sequence | binding signal (log2 normalized intensity)
73 | CTCTCATAAAAGAGGCCAATTTCTTGTCTG | -0.124
74 | CACAGGAAAGGAGACTAAAGGTCAAAACCA | 3.38
75 | CACTCCCAGTCCAGATATAGGGGAGGTCCT | -1.05
76 | ATTATGCACCCGTGGTTGATCAAAGGTTGG | 2.95
77 | AATAAGCATTCTGTTTCCTACTGACCTCCG | 2.41
78 | AGTGTAAGGACATTGCCCCCTATGTAAAGG | 3.28
79 | GGGTTACCGGCAGAGAGAAGCCACTGCGAC | -1.07
80 | GTACTATGACCCAAACTTCACAAAAATGAG | 1.22
81 | TTCCCAAGAAGAGCCCAGACAAGCATTCTG | -0.922
82 | TGAGACCTGTGATGGTCACTATCTGGGCCA | 0.388
83 | CCAGCAGATGAGCCTGTTGGGAGCCAGGCA | -1.1
84 | CAAACAAATGCCATAGTCCAAAGTGGCAGT | 1.08
85 | ACCTTTGCCCTTGACTTTTTGTGGGGGCAG | 2.38
86 | GTCAAGTAGAGACCTGTCTTCCTGGTGACC | 2.19
87 | TGTGTGTGTGTGTGTGTCTGTGTGTGTGTG | 3.59
88 | CCTATCTGGTGCAGTCCAAGAGGCCCAGGT | -1.19
89 | TCTGCAAGGCAACTGACCTTTGGATCTGGG | 7.21
90 | GACCCAGGAGGAGAAGGGTGGGAATTGGGA | -1.1
91 | CAGGCCGGCTTGCGTCCCCAGGTGAACTCA | 1.41
92 | TCACAATTAAGCCAAACTTGGGTTTATGGC | 0.583
93 | AAGGAGATTCCTGTGTCAGCAGAAGGCCCC | 0.716
